# PMC6919601, “Identification of Plasmodium dipeptidyl aminopeptidase allosteric inhibitors by high throughput screening” (PLoS ONE, 2019)
# Where “and” joins values, the source holds several entries; their conditions need not be identical. Equal entries are not always repeated. Hit rate of the full screen: of about 110,000 compounds, about 230 (0.21%) showed an effect of 50% or more. The list shows a part of the results.
# Target: DPAP1 (Plasmodium falciparum, UniProt Q8IIJ9)
# Test: primary screen, percent inhibition; read by cleavage of a fluorogenic dipeptide substrate; higher = more effect of the substance
# Design: species or system P. falciparum D10 trophozoite lysates; single well
# 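Further: 30 min substrate incubation versus DMSO and 10 µM JCP410 controls.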
# DPAP1, sequence (Q8IIJ9 whole entry, looked up): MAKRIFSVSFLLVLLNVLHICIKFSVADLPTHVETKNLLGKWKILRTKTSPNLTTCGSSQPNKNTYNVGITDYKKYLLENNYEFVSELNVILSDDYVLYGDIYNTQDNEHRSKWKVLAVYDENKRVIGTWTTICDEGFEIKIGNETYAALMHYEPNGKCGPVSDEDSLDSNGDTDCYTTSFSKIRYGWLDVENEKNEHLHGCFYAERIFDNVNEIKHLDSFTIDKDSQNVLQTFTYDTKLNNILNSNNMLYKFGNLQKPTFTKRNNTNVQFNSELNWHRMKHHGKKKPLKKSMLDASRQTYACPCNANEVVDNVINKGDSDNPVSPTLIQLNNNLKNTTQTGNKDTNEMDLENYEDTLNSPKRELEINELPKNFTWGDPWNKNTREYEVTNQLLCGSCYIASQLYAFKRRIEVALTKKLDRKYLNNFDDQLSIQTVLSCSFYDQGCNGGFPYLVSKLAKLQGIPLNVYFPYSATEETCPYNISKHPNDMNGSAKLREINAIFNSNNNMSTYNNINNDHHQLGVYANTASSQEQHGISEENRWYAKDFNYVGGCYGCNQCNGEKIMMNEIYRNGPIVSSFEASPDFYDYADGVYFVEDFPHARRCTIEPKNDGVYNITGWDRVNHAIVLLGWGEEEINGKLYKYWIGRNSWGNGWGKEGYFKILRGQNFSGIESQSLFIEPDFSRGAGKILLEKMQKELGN
row,SMILES,% Inhibition @ 10 uM
1,COC(=O)/C(C#N)=C\c1cccc2ccccc12,-0.597%
2,OCC(O)CN(c1ccccc1)c1ccccc1 (centres unmarked),1.44%
3,CCC(C)(O)C#CCN1CCCCC1 (centres unmarked),2.13%
4,CS(=O)(=O)CCC(C(=O)n1nnc2ccccc21)N1C(=O)c2ccccc2C1=O (centres unmarked),2.95%
5,Cc1ccc(C2SCC(=O)Nc3c2c(C)nn3-c2ccccc2)cc1 (centres unmarked),-4.26%
6,O=C(Cc1ccccc1)NC1CCCCCC1,2.22%
7,CCOC(=O)c1ccc(-n2c(C)nc(=O)c(-c3ccccc3)c2C)cc1,-1.05%
8,Cc1onc(-c2ccccc2Cl)c1C(=O)NC1CCS(=O)(=O)C1 (centres unmarked),1.84%
9,CCOC(=O)N1CCC(NCCc2ccccc2)CC1,-1.96%
10,CC1(C)OC(C)(C)/C(=C/c2c(Cl)cccc2Cl)C1=O,-0.703%
11,O=C1NCCN/C1=C\C(=O)c1cccs1,0.565%
12,Cn1c(C(=O)N2CCC(C(=O)NC3CCCc4ccccc43)CC2)cc2sccc21 (centres unmarked),4.95%
13,C=CCN(C(=O)c1oc(=O)c2ccccc2c1-c1ccccc1)C1CCCCC1,3.96%
14,Cc1c(Cl)cccc1-n1nc(C)c2c(C)cc(=O)n(CC(=O)N3CCOCC3)c21,-0.477%
15,COc1ccc(C2=N/C(=C\c3ccc(C)o3)C(=O)O2)c(Cl)c1,6.56%
16,CCOc1ccc(CN2CCN(c3ccccc3)CC2)cc1,-1.77%
17,O=S(=O)(NCc1ccccc1)c1ccccc1,2.94%
18,COc1ccc(CNCc2ccccc2F)cc1,20.5%
19,COc1c(Cl)cc(Cl)cc1C(=O)Nc1ccc(CN2CCOCC2)cc1,-3.28%
20,CC(C)S(=O)(=O)C1=NSC2=NC(=O)/C(=C\c3ccc(O)c(Br)c3)C(=N)N21,-5.27%
21,COc1ccccc1CN1CCN(Cc2ccncc2)CC1,1.35%
22,CC1CN(C(=O)c2cc3c(=O)n4ccccc4nc3n2C)CC(C)O1 (centres unmarked),-1.55%
23,COc1ccccc1/C=C(\NC(=O)c1cccc(C)c1)C(=O)Nc1ccccn1,-7.23%
24,CC1CCCC(C)N1C(=O)Nc1cccc(Cl)c1 (centres unmarked),-6.82%
25,COCC(C)NC1CCN(CCc2ccccc2)CC1 (centres unmarked),1.57%
26,COc1cc(OC)cc(C(=O)Nc2cc3c(cc2C(C)=O)OCO3)c1,1.59%

row,SMILES,% Inhibition @ 10 uM
1,COC(=O)C1=C(C)N(C(C)c2ccccc2)C(=O)/C1=C\c1ccc(F)cc1 (centres unmarked),-5.14%
2,Cc1ccc(-c2nc3ccccc3[nH]2)cc1N,0.177%
3,CCN(CC)CCNC(=O)COc1ccc(F)cc1,-5.19%
4,CCc1nnc(SC(CC)C(=O)NCCOC)c2cc3sccc3n12 (centres unmarked),3.88%
5,CN(CC(=O)NC1CCCCCC1)S(=O)(=O)c1ccc(F)cc1,3.17%
6,CN(C)c1ccc2c(c1)OC(N)=C(C#N)C2c1ccc(Br)cc1 (centres unmarked),-2.89%
7,CSc1nc(N)nc2sc(C(=O)c3ccc(Cl)cc3)c(N)c12,10.8%
8,c1csc(-c2csc3ncnc(N4CCCC4)c23)c1,-4.62%
9,CC1CCC(N(C)CC(O)c2ccccc2)C1 (centres unmarked),-1.64%
10,Cn1cc(C(=O)Nc2ccc(Oc3ccccc3)cc2)cn1,-4.59%
11,Cc1oc2c(C)c3oc(=O)c(CCC(=O)N4CCCC4)c(C)c3cc2c1C,5.68%
12,Cc1cc(NC(=O)CN2CCN(C(=O)c3ccccc3)CC2)c2ccccc2n1,-7.35%
13,CC(=O)Nc1ccc(N2C(=O)c3cccc4c(C(=O)c5ccccc5)ccc(c34)C2=O)cc1,6.43%
14,O=C(/C=C/c1ccc(Cl)cc1)NCc1ccccc1,3.9% and -1.62%
15,Cc1ccc(C(=O)Nc2ccccc2C(=O)O)cc1N,2.25%
16,O=C(NCCc1nc2ccccc2n1CCCOc1ccccc1)c1ccco1,2.14%
17,CC1CCc2c(sc(NC(=O)c3ccc4c(c3)OCO4)c2C(N)=O)C1 (centres unmarked),1.88%
18,CC1CCN(S(=O)(=O)c2ccc3[nH]c4c(c3c2)CCCC4)CC1,0.434%
19,N=c1c(S(=O)(=O)c2ccc(Cl)cc2)cc2c(=O)n3ccccc3nc2n1C1CCCCC1,1.91%
20,Cc1cc(C(=O)N2CC3(C)CC2CC(C)(C)C3)on1 (centres unmarked),-7.13%
21,O=C1C2ON(c3ccc(Br)cc3)C(c3cccnc3)C2C(=O)N1C1CCCCC1 (centres unmarked),-2.54%
22,COc1ccc(OCC(O)CN2CCOCC2)cc1 (centres unmarked),1.27%
23,CC1(C)CC2=Nc3nc(SCc4ccccc4)nn3C(c3cccs3)C2=C(O)C1 (centres unmarked),-2.9%
24,COc1ccccc1C1=N/C(=C\c2sccc2C)C(=O)O1,-0.251%
25,CCOc1cc(Cl)c(C(C)NC(=O)c2cccc(OC)c2)cc1OCC (centres unmarked),-1.28%
26,CCCCN(CCCC)CCNC(=O)CNC(=O)c1cccs1,0.387%

row,SMILES,% Inhibition @ 10 uM
1,Clc1ccc(CSc2nc3cccnc3[nH]2)cc1Cl,-1.02%
2,COc1ccc(CN2C(=O)c3cccnc3C2=O)cc1S(=O)(=O)N1CCCCC1C (centres unmarked),2.76%
3,Cc1ccc(C)c(CN2CCOCC2)c1,-2.02%
4,Fc1cccc(Cl)c1CN1CCN(c2cccc(Cl)c2)CC1,-1.64%
5,Cc1cccc(NC(=O)C(C)Oc2ccccc2)c1 (centres unmarked),0.843%
6,O=C(c1cnn(-c2ccccc2)c1-n1cccc1)N1CCC(C(=O)N2CCOCC2)CC1,0.137%
7,CCOC(=O)N1CCN(c2nc(-c3ccccc3)cc(C(F)(F)F)n2)CC1,-3.79%
8,c1ccc(-c2cc(N3CCOCC3)n3c(n2)nc2ccccc23)cc1,3.88%
9,CC(C)C[C@H](NC(=O)c1ccc(-c2ccccc2NS(C)(=O)=O)c(Cl)c1)C(=O)NCC#N,-3.48%
10,CCSc1cc(N2CCCC2)nc(-c2ccccc2)n1,-0.795%
11,O=C(NC(=S)N1CCCCCC1)c1ccco1,6.03%
12,O=C(NC1CCN(Cc2ccccc2)CC1)c1cnn(-c2ccccc2)c1-n1cccc1,-1.58%
13,O=C(O)c1ccc(CN2CCN(c3ccccc3F)CC2)cc1,4.04%
14,c1ccc(-c2nnn3c2nc(N2CCc4ccccc4C2)c2ccccc23)cc1,3.59%
15,CC(C)(C)C(=O)N1CCCC1C(=O)Nc1ccccc1 (centres unmarked),1.35%
16,COCCCNC(=O)c1cnn(-c2ccc(F)cc2)c1C1CCN(C(=O)OC(C)(C)C)CC1,-2.37%
17,CCC(=O)c1c(C)nc2n(C)c3ccccc3n12,-4.98%
18,COc1ccc(-c2cn3c(C)c(C(=O)Nc4ccncc4)sc3n2)cc1,-1.89%
19,Cc1ccc(CN(Cc2ccco2)C(=O)c2ccc(C)cc2)cc1,-0.45%
20,O=C(Cn1c2ccccc2c2cnnc(O)c21)NCC1CCCO1 (centres unmarked),4.55%
21,O=C(O)CN(CC(=O)O)Cc1c(O)cccc1O,-4.61%
22,CC1=C(C(=O)OC2CCCCCCC2)C(c2ccccc2Br)NC(=O)N1 (centres unmarked),7.05%
23,CCCOc1cccc(C2C(C(=O)c3ccc(C)o3)=C(O)C(=O)N2c2nc(C)c(C(C)=O)s2)c1 (centres unmarked),3.29%
24,Cn1c(=O)c2c(ncn2CC(=O)Nc2ccccc2C(N)=O)n(C)c1=O,-0.796%
25,Cc1ccc(SC(C)C(=O)NCc2ccco2)cc1 (centres unmarked),1.87%
26,O=C(Nc1ccncc1)c1c(O)c2c(n(Cc3ccco3)c1=O)CCCC2,-2.17%

row,SMILES,% Inhibition @ 10 uM
1,Cc1c(/C(CC(C)C)=N/O)c2ccccc2n1C,-2.51%
2,CSc1nc(C)c2cc(C)oc2n1,-8.01%
3,COc1ccc(C(=O)O/N=C2/c3ccccc3-c3ncccc32)cc1OC,-8.95%
4,O=C(NCc1ccccc1)C(O)c1ccccc1 (centres unmarked),4.22%
5,O=S(=O)(c1cccc(Cl)c1Cl)N1CCOCC1,-0.771%
6,CN(C)c1ccc(-c2nc3c(O)ncnc3[nH]2)cc1,16.8%
7,CCN(CC)C(=O)C1=C(C)N=c2s/c(=C/c3ccc(O)cc3)c(=O)n2C1c1ccccc1OC (centres unmarked),-8.41%
8,Cc1cccc(-n2nnc(-c3ccccc3)c2N)c1,-1.85%
9,CCSc1nc2c(c(=O)[nH]c(=O)n2C)n1CC(O)COc1ccc(CC)cc1 (centres unmarked),2.08%
10,CCOC(=O)c1c(/N=C/c2nc(-c3cccc(OC)c3)oc2O)sc2c1CCCC2,-1.47%
11,C/C(=N\OCC(=O)Nc1nc2ccccc2s1)c1ccccc1,-11%
12,COc1ccc(-c2csc(Nc3ncccc3C)n2)cc1OC,3.38%
13,O=C(c1ccc(Cl)cc1Cl)N1CCCC1,2.6%
14,C=CCSc1nc2c(c(=O)n1C)C1(CCCC1)Cc1ccccc1-2,1.42%
15,CC1(C)COC(COc2ccc(Cl)cc2)=N1,-3.8%
16,O=C(Cn1c(=O)c2cccn2c2cccnc21)NCc1ccco1,-9.17%
17,Cc1nn(C)c(C(=O)Nc2cccc(CN3CCOCC3)c2)c1Br,-8.68%
18,CN1CCN(S(=O)(=O)c2ccc3oc(=O)c4ncn(C)c4c3c2)CC1,-4.97%
19,CCC[C@H](NC(=O)OC(C)(C)C)C(=O)NCC#N,-6.68%
20,CC(=O)c1c(C)n(CCc2nc3ccccc3[nH]2)c(C)cc1=O,2.77%
21,CCCC(C)C1C(C#N)=C(N)OC2=C1C(=O)CC(C)(C)C2 (centres unmarked),2.46%
22,O=C(C1=C(O)C(=O)N(c2cccnc2)C1c1cccc(F)c1)c1ccccc1 (centres unmarked),-1.02%
23,CC1(C)CC(=O)c2c(nc(S)c(C#N)c2-c2ccc(Br)cc2)C1,2.84%
24,O=C(c1ccc(Br)o1)N(Cc1ccccc1)Cc1ccccc1,-5.51%
25,CC(C)NC(=O)CCCc1cn(C)c2ccccc12,-1.34%
26,COc1cc(OC)c(/C=C2\SC(=O)N(CC(=O)Nc3ccc(C)cc3)C2=O)c(OC)c1,-1.43%
